Data on 19 molecules can be found in the supplement of paper PMC10369915.

Some of the results follow. Cut-off read from the data, not from the text of the source: active = 3.2 or more and inactive = the rest. Most of these values are background signal.

Sequences and labels used below:
B1: PDE6C_Y266_YF (peptide)
chain: FHKALYTVRSF
B2: PDGFRA_Y574_YF (peptide)
chain: GHEFIYVDPMQ
B3: PDGFRA_Y849_D846Y_YF (peptide)
chain: MHFSNYVSKGS
B4: PDE6B_Y227_L228H_YF (peptide)
chain: IFHLSYHHNCE
B5: PDGFRA_Y768 (peptide)
chain: DRPASYKKKSM
B6: PDGFRA_Y849_Y849S (peptide)
chain: MHDSNSVSKGS
B7: PDE6C_Y266 (peptide)
chain: FHKALYTVRSY
B8: PDGFRA_Y582_L580M (peptide)
chain: PMQMPYDSRWE
B9: PDGFRA_Y572_YF (peptide)
chain: PDGHEYIFVDP
B10: PDGFRA_Y574_H570R_YF (peptide)
chain: GREFIYVDPMQ
B11: PDE6B_Y556_H557Y_YF (peptide)
chain: FRRITYFNWRH
B12: PDGFRA_Y849 (peptide)
chain: MHDSNYVSKGS
B13: PDE6B_Y556_H557Y (peptide)
chain: YRRITYYNWRH
B14: PDGFRB_Y579_P584R (peptide)
chain: SDGHEYIYVDR
B15: PDE6B_Y227_YF (peptide)
chain: IFHLSYLHNCE
B16: PDE6B_Y556_YF (peptide)
chain: FRRITYHNWRH
B17: PDGFRB_Y562_R561C (peptide)
chain: QKKPCYEIRWK
B18: PDE6B_Y227_L228I (peptide)
chain: IYHLSYIHNCE
B19: PDGFRA_Y574_H570R (peptide)
chain: GREYIYVDPMQ
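Note: displayed peptides selected on beads carrying the immobilized SH2 domain, with library peptides lacking any tyrosine serving as negative controls.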

One experiment has as its target SHP2 C-SH2 domain E139D. Briefly: enrichment score (SH2-bound / input frequency) (ratio); bacterial display of known human phosphotyrosine sites (pTyr-Var adds point mutants) read by sequencing; higher = stronger binding; tyrosines were phosphorylated by kinases first. Conditions: peptide library: pTyr-Var.
On to B1, for which the enrichment score was inactive: 0.937.
In the case of B2, the enrichment score was inactive: 0.96.
As to B3, the enrichment score is inactive: 0.979.
Regarding B4, the enrichment score was inactive: 2.95.
In the case of B5, the enrichment score was inactive: 0.506.
On the same count and under the same terms, the same measure for B6: inactive: 0.578; for B7: inactive: 0.602.
As to B8, the enrichment score is inactive: 0.812.
Same read-out and setting: the same measure for B9: inactive: 0.56; for B10: inactive: 0.917.
On the same count and under the same terms, the same measure for B11: inactive: 0.298; for B12: inactive: 0.506; for B13: inactive: 0.252.
The same measure, in the same setting: the same measure for B14: inactive: 0.707; for B15: inactive: 2.96; for B16: inactive: 0.343.
As to B17, the enrichment score is inactive: 2.76.
Same read-out and setting: the value for B18 was inactive: 2.86; that for B19 was inactive: 1.49.

The next experiment concerns the target SHP2 C-SH2 domain wild-type. Described as above. Particulars: peptide library: pTyr-Var.
For B1, the enrichment score was inactive: 0.774.
For the molecule B2, the enrichment score is inactive: 0.896.
B3: the enrichment score is inactive: 0.7.
With B4, the enrichment score is inactive: 2.52.
Turning to B5, the enrichment score was inactive: 0.426.
In the case of B6, the enrichment score is inactive: 0.616.
For B7, the enrichment score was inactive: 0.563.
For B8, the enrichment score was inactive: 0.579.
Turning to B9, the enrichment score is inactive: 0.512.
Same read-out and setting: the value for B10 was inactive: 0.55; that for B11 was inactive: 0.285; that for B12 was inactive: 0.382.
In the case of B13, the enrichment score is inactive: 0.263.
Regarding B14, the enrichment score is inactive: 0.629.
For the molecule B15, the enrichment score was inactive: 3.04.
On to B16, for which the enrichment score was inactive: 0.214.
The same measure, in the same setting: the value for B17 was inactive: 2.64; that for B18 was inactive: 2.49.
Consider B19, for which the enrichment score was inactive: 1.06.

Another experiment concerns the target SHP2 N-SH2 domain L43F. Described as above. Conditions: peptide library: pTyr-Var.
Regarding B1, the enrichment score is inactive: 0.634.
On the same count and under the same terms, the same measure for B2: inactive: 0.939; for B3: inactive: 0.798.
On the same count and under the same terms, the same measure for B4: inactive: 2.43; for B5: inactive: 0.303; for B6: inactive: 0.557.
Consider B7, for which the enrichment score is inactive: 0.657.
B8: the enrichment score was inactive: 0.817.
Same read-out and setting: the value for B9 was inactive: 0.62.
On to B10, for which the enrichment score was inactive: 1.11.
For the molecule B11, the enrichment score was inactive: 0.267.
With B12, the enrichment score was inactive: 0.47.
As for B13, the enrichment score is inactive: 0.22.
For the molecule B14, the enrichment score is inactive: 0.613.
Take B15: the enrichment score is inactive: 3.03.
For the molecule B16, the enrichment score was inactive: 0.438.
Turning to B17, the enrichment score was inactive: 2.89.
With B18, the enrichment score was inactive: 2.54.
Consider B19, for which the enrichment score is inactive: 1.08.

A further experiment addresses SHP2 N-SH2 domain T42A. The experiment is described as above. Particulars: peptide library: pTyr-Var.
Regarding B1, the enrichment score is inactive: 0.632.
Still for that read-out and setting: the value for B2 was inactive: 0.846; that for B3 was inactive: 0.833.
As to B4, the enrichment score was inactive: 2.34.
Turning to B5, the enrichment score was inactive: 0.327.
Still for that read-out and setting: the value for B6 was inactive: 0.573.
On to B7, for which the enrichment score is inactive: 0.412.
Same read-out and setting: the value for B8 was inactive: 0.738.
Turning to B9, the enrichment score was inactive: 0.507.
With B10, the enrichment score is inactive: 0.814.
Same read-out and setting: the same measure for B11: inactive: 0.318.
For B12, the enrichment score is inactive: 0.469.
Still for that read-out and setting: the value for B13 was inactive: 0.269; that for B14 was inactive: 0.679.
Still for that read-out and setting: the same measure for B15: inactive: 2.43; for B16: inactive: 0.175; for B17: inactive: 2.62.
Consider B18, for which the enrichment score was inactive: 2.09.
For B19, the enrichment score was inactive: 1.1.

A further experiment concerns the target SHP2 N-SH2 domain T52S. The description is as above. Particulars: peptide library: pTyr-Var.
As for B1, the enrichment score is inactive: 0.966.
In the case of B2, the enrichment score was inactive: 0.883.
As for B3, the enrichment score was inactive: 0.782.
Still for that read-out and setting: the value for B4 was inactive: 2.83; that for B5 was inactive: 0.49; that for B6 was inactive: 0.534.
Consider B7, for which the enrichment score was inactive: 0.46.
Turning to B8, the enrichment score is inactive: 0.827.
As for B9, the enrichment score is inactive: 0.601.
Still for that read-out and setting: the value for B10 was inactive: 0.734.
As to B11, the enrichment score is inactive: 0.954.
The same measure, in the same setting: the same measure for B12: inactive: 0.419.
Same read-out and setting: the value for B13 was inactive: 0.254; that for B14 was inactive: 0.762.
For the molecule B15, the enrichment score was inactive: 2.96.
On the same count and under the same terms, the value for B16 was inactive: 0.399.
The same measure, in the same setting: the value for B17 was inactive: 2.08; that for B18 was inactive: 2.48.
Consider B19, for which the enrichment score was inactive: 1.01.

For a further experiment, the target named is SHP2 N-SH2 domain wild-type. Described as above. Conditions: peptide library: pTyr-Var.
For the molecule B1, the enrichment score was inactive: 0.88.
As to B2, the enrichment score is inactive: 1.
For the molecule B3, the enrichment score is inactive: 0.887.
The same measure, in the same setting: the same measure for B4: inactive: 2.92.
For the molecule B5, the enrichment score is inactive: 0.407.
On to B6, for which the enrichment score is inactive: 0.537.
For B7, the enrichment score was inactive: 1.16.
On the same count and under the same terms, the same measure for B8: inactive: 0.785; for B9: inactive: 0.591; for B10: inactive: 0.629.
B11: the enrichment score is inactive: 0.281.
B12: the enrichment score is inactive: 0.401.
Consider B13, for which the enrichment score is inactive: 0.2.
On to B14, for which the enrichment score is inactive: 0.662.
In the case of B15, the enrichment score is inactive: 2.97.
On to B16, for which the enrichment score is inactive: 0.284.
Regarding B17, the enrichment score was inactive: 2.68.
Turning to B18, the enrichment score was inactive: 2.45.
Consider B19, for which the enrichment score was inactive: 1.18.
